In the supplement of paper PMC4604168 (melanoma cell lines):
The list shows a part of the results. Many values rest on one well or one pass, so single values are uncertain.

Columns and labels:
Test in all cases: cell count relative to DMSO control; melanoma cells; higher = more viable cells
Details in all cases: library dose: standard library concentration; 72 h
[1] = system: G361
[2] = system: IPC-298
[3] = system: IST-MEL1
[4] = system: LB2518-MEL
[5] = system: LOXIMVI
[6] = system: MEL-HO
[7] = system: MZ2-MEL
[8] = system: MeWo
[9] = system: RPMI7951
[10] = system: RVH-421
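Also: cells treated in 1,536-well plates, then fixed and DAPI-stained, with nuclei counted from automated high-throughput microscope images.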

Row | Compound | cell count [1] [%] | cell count [2] [%] | cell count [3] [%] | cell count [4] [%] | cell count [5] [%] | cell count [6] [%] | cell count [7] [%] | cell count [8] [%] | cell count [9] [%] | cell count [10] [%]
1 | CN(c1ncccc1CNc1nc(Nc2ccc3c(c2)CC(=O)N3)ncc1C(F)(F)F)S(C)(=O)=O + C=CCn1c(=O)c2cnc(Nc3ccc(N4CCN(C)CC4)cc3)nc2n1-c1cccc(C(C)(C)O)n1 [MK1775] (first compound 0.4 µM, partner dose 0.1 µM) | 89.7 | 101 | 88.1 | 71.5 | 76.2 | 98.1 | 91.5 | 101 | 55.9 | 70.3
2 | CS(=O)(=O)c1ccc(C(=O)Nc2ccc(Cl)c(-c3ccccn3)c2)c(Cl)c1 [vismodegib] + Cc1cc(N2CCOCC2)cc2[nH]c(-c3c(NC[C@@H](O)c4cccc(Cl)c4)cc[nH]c3=O)nc12 [BMS536924] (first compound 5 µM, partner dose 1 µM) | 91.2 | 101 | 87.7 | 95.2 | 76.5 | 86.6 | 129 | 73.5 | 109 | 81.9
3 | CCCS(=O)(=O)Nc1ccc(F)c(C(=O)c2c[nH]c3ncc(Cl)cc23)c1F + O=C(O)c1ccc(-c2c[nH]c3ncc(-c4ccccc4)cc23)cc1C1CCCC1 [GSK650394] (first compound 0.4 µM, partner dose 0.8 µM) | 55.3 | 69.8 | 61.3 | 78.4 | 64.9 | 62.3 | 72.9 | 95.3 | 76.6 | 68.3
4 | C=C(c1ccc(C(=O)O)cc1)c1cc2c(cc1C)C(C)(C)CCC2(C)C [Bexarotene] + Cc1cc([N+](=O)[O-])ccc1NS(=O)(=O)c1cc(Cl)ccc1Cl [FH535] (first compound 10 µM, partner dose 5 µM) | 42.7 | 51.1 | 72.2 | 82.4 | 57.2 | 50.8 | 70.4 | 82.1 | 85.1 | 70.7
5 | C=C(c1ccc(C(=O)O)cc1)c1cc2c(cc1C)C(C)(C)CCC2(C)C [Bexarotene] + Nc1nc(F)nc2c1ncn2[C@@H]1O[C@H](CO)[C@@H](O)[C@@H]1O [fludarabine] (first compound 10 µM, partner dose 1 µM) | 59.5 | 57.9 | 66.3 | 80.9 | 131 | 66 | 74.8 | 82.7 | 56.6 | 101
6 | CS(=O)(=O)c1ccc(C(=O)Nc2ccc(Cl)c(-c3ccccn3)c2)c(Cl)c1 [vismodegib] + CCc1ccc(CCOc2ccc(CC3SC(=O)NC3=O)cc2)nc1 [pioglitazone] (first compound 5 µM, partner dose 10 µM) | 84 | 86.9 | 83.2 | 104 | 87.8 | 77.1 | 103 | 89.5 | 73 | 89.6
7 | C=C(c1ccc(C(=O)O)cc1)c1cc2c(cc1C)C(C)(C)CCC2(C)C [Bexarotene] + Nc1cccc2c1CN(C1CCC(=O)NC1=O)C2=O [lenalidomide] (first compound 10 µM, partner dose 5 µM) | 78.8 | 83.5 | 84.5 | 102 | 77 | 109 | 67.9 | 98.8 | 54.1 | 74.5
8 | CN(c1ncccc1CNc1nc(Nc2ccc3c(c2)CC(=O)N3)ncc1C(F)(F)F)S(C)(=O)=O + CN1CCN(c2ccc3nc(-c4c(N)c5c(F)cccc5[nH]c4=O)[nH]c3c2)CC1 [Dovitinib] (first compound 0.4 µM, partner dose 0.5 µM) | 65.1 | 62 | 57.5 | 60.1 | 129 | 63.9 | 48.1 | 49.5 | 43.2 | 76.2
9 | CN(c1ncccc1CNc1nc(Nc2ccc3c(c2)CC(=O)N3)ncc1C(F)(F)F)S(C)(=O)=O + O=C(O)C(=O)Nc1sc2c(c1C(=O)O)CCNC2 [TCS401] (first compound 0.4 µM, partner dose 8.33333 µM) | 83.7 | 83.9 | 94.3 | 79.8 | 212 | 83.9 | 86.9 | 97.2 | 66.7 | 87.8
10 | NC1(c2ccc(-c3nc4ccn5c(=O)[nH]nc5c4cc3-c3ccccc3)cc2)CCC1 + N#Cc1c(O)c2c(-c3ccc(-c4ccccc4O)cc3)csc2[nH]c1=O [A769662] (first compound 2 µM, partner dose 10 µM) | 69 | 88.4 | 67.7 | 85.3 | 73.4 | 62.6 | 95.8 | 70.1 | 77.5 | 84
11 | C=C(c1ccc(C(=O)O)cc1)c1cc2c(cc1C)C(C)(C)CCC2(C)C [Bexarotene] + CO[C@@H]1[C@H](N(C)C(=O)c2ccccc2)C[C@H]2O[C@]1(C)n1c3ccccc3c3c4c(c5c6ccccc6n2c5c31)C(=O)NC4 [Midostaurin] (first compound 10 µM, partner dose 0.4 µM) | 60.6 | 66.9 | 65.8 | 62.5 | 87.3 | 81 | 65.2 | 64.4 | 51.3 | 72.5
12 | NC1(c2ccc(-c3nc4ccn5c(=O)[nH]nc5c4cc3-c3ccccc3)cc2)CCC1 + COc1cc(N2CCC(N3CCN(C)CC3)CC2)ccc1Nc1ncc(Cl)c(Nc2ccccc2S(=O)(=O)C(C)C)n1 [NVP-TAE684] (first compound 2 µM, partner dose 0.4 µM) | 66.9 | 77.2 | 70.5 | 73.5 | 72.3 | 58.7 | 83.1 | 65 | 50.3 | 81.4
13 | CN(c1ncccc1CNc1nc(Nc2ccc3c(c2)CC(=O)N3)ncc1C(F)(F)F)S(C)(=O)=O + O=C(O)[C@@H]1[O][Sb](=[O])([O][Sb]2(=[O])[O][C@H]([C@H](O)CO)[C@H](O)[C@H](C(=O)O)[O]2)[O][C@H]([C@H](O)CO)[C@@H]1O [stibogluconate] (first compound 0.4 µM, partner dose 10 µM) | 97.7 | 86.9 | 97.8 | 112 | 90.1 | 106 | 83.8 | 97.9 | 77.4 | 117
14 | CN(c1ncccc1CNc1nc(Nc2ccc3c(c2)CC(=O)N3)ncc1C(F)(F)F)S(C)(=O)=O + Nc1nc(F)nc2c1ncn2[C@@H]1O[C@H](CO)[C@@H](O)[C@@H]1O [fludarabine] (first compound 0.4 µM, partner dose 1 µM) | 74.5 | 69.8 | 76.8 | 68.8 | 54.4 | 58.1 | 67.2 | 88 | 41 | 97.6
15 | CCCS(=O)(=O)Nc1ccc(F)c(C(=O)c2c[nH]c3ncc(Cl)cc23)c1F + Cc1ccc(NC(=O)c2cccc(N(C)C)c2)cc1NC(=O)c1ccc(O)cc1 [ZM336372] (first compound 0.4 µM, partner dose 10 µM) | 77.2 | 108 | 21.4 | 108 | 85 | 96 | 114 | 104 | 91.8 | 72.1
16 | CN(c1ncccc1CNc1nc(Nc2ccc3c(c2)CC(=O)N3)ncc1C(F)(F)F)S(C)(=O)=O + CCCS(=O)(=O)Nc1ccc(F)c(C(=O)c2c[nH]c3ncc(Cl)cc23)c1F [PLX4720] (first compound 0.4 µM, partner dose 0.4 µM) | 58.6 | 73.7 | 80.7 | 84.2 | 76 | 79.2 | 76.6 | 105 | 62.2 | 64.2
17 | CN(c1ncccc1CNc1nc(Nc2ccc3c(c2)CC(=O)N3)ncc1C(F)(F)F)S(C)(=O)=O + OCc1c[nH]c2ccccc12 [Indole-3-carbinol] (first compound 0.4 µM, partner dose 4 µM) | 83.9 | 86.2 | 85.7 | 90.6 | 123 | 87.2 | 84.8 | 89.4 | 66.7 | 90.5
18 | CS(=O)(=O)c1ccc(C(=O)Nc2ccc(Cl)c(-c3ccccn3)c2)c(Cl)c1 [vismodegib] + OCCn1cc(-c2cnc3nnn(Cc4ccc5ncccc5c4)c3n2)cn1 [PF04217903] (first compound 5 µM, partner dose 5 µM) | 108 | 99.3 | 102 | 108 | 73.5 | 105 | 117 | 98.5 | 117 | 98.7
19 | C=C(c1ccc(C(=O)O)cc1)c1cc2c(cc1C)C(C)(C)CCC2(C)C [Bexarotene] + NCC(=O)Nc1ccc(-n2nc(C(F)(F)F)cc2-c2ccc3c(ccc4ccccc43)c2)cc1 [OSU03012] (first compound 10 µM, partner dose 5 µM) | 55.2 | 64.5 | 81.4 | 105 | 80.9 | 70.5 | 83.8 | 89.1 | 87.7 | 84.5
20 | CS(=O)(=O)c1ccc(C(=O)Nc2ccc(Cl)c(-c3ccccn3)c2)c(Cl)c1 [vismodegib] + CC(C)(C)c1cnc(CSc2cnc(NC(=O)C3CCNCC3)s2)o1 [SNS-032] (first compound 5 µM, partner dose 0.05 µM) | 78.6 | 114 | 108 | 74.8 | 86.5 | 101 | 105 | 109 | 40.7 | 81.9
21 | C=C(c1ccc(C(=O)O)cc1)c1cc2c(cc1C)C(C)(C)CCC2(C)C [Bexarotene] + O=C(Nc1ccccc1)c1cc([N+](=O)[O-])ccc1Cl [GW9662] (first compound 10 µM, partner dose 10 µM) | 70.9 | 85.6 | 85.8 | 85.6 | 106 | 85.8 | 74.9 | 84.3 | 69.2 | 35
22 | CN(c1ncccc1CNc1nc(Nc2ccc3c(c2)CC(=O)N3)ncc1C(F)(F)F)S(C)(=O)=O + NCC(=O)Nc1ccc(-n2nc(C(F)(F)F)cc2-c2ccc3c(ccc4ccccc43)c2)cc1 [OSU03012] (first compound 0.4 µM, partner dose 5 µM) | 64.6 | 59.9 | 53.6 | 71.3 | 61.3 | 79.8 | 65.6 | 105 | 55.7 | 92.2
